# The other results are listed elsewhere or left out.
# Tested on: HepG2
# Assay: cytotoxicity call (relative viability < 0.9)
# Conditions: 10 µM
row,SMILES,cytotoxicity call
1,Cc1ccc(S(=O)(=O)N2C[C@H](O)COC[C@H]3O[C@H](CC(=O)N4CCc5ccccc5C4)CC[C@@H]32)cc1,inactive
2,COc1ccc(S(=O)(=O)Nc2ccc3c(c2)C(=O)N([C@H](C)CO)C[C@H](C)[C@H](CN(C)C(=O)c2ccccc2)OCCCC[C@@H](C)O3)cc1,inactive
3,NNC(=O)c1ccc(C(=O)NO)cc1,inactive
4,C[C@@H]1CCCCO[C@@H](CN(C)Cc2ccncc2)[C@@H](C)CN([C@H](C)CO)C(=O)c2cc(NC(=O)Nc3ccc(C(F)(F)F)cc3)ccc2O1,active
5,N[C@@H](CO)c1ccccc1,inactive
6,CO[C@H]1O[C@H](COS(=O)(=O)O)[C@@H](O[C@@H]2O[C@@H](C(=O)O)[C@@H](O[C@H]3O[C@H](COS(=O)(=O)O)[C@@H](O[C@@H]4O[C@H](C(=O)O)[C@@H](O[C@H]5O[C@H](COS(=O)(=O)O)[C@@H](O)[C@H](O)[C@H]5NS(=O)(=O)O)[C@H](O)[C@H]4O)[C@H](OS(=O)(=O)O)[C@H]3NS(=O)(=O)O)[C@H](O)[C@H]2OS(=O)(=O)O)[C@H](O)[C@H]1NS(=O)(=O)O,inactive
7,NC(=S)N1CCCC1,inactive
8,C[C@@H]1CN([C@@H](C)CO)C(=O)c2cc(NC(=O)Nc3cccc4ccccc34)ccc2O[C@H]1CN(C)Cc1ccccc1,inactive
9,Cc1ccc(S(=O)(=O)N2C[C@@H](O)COC[C@@H]3O[C@H](CC(=O)N[C@H]4CCN(Cc5ccccc5)C4)CC[C@H]32)cc1,inactive
10,Cc1ccc(S(=O)(=O)Nc2ccc3c(c2)CC(=O)N([C@H](C)CO)C[C@@H](C)[C@@H](CN(C)Cc2ccc(Oc4ccccc4)cc2)O3)cc1,active

# Reference: the antibiotic and cytotoxicity screens of Wong et al. (2023)
